Measured values published in the supplement of paper PMC10724272.
MIC of invasive clinical C. tropicalis isolates, CLSI broth microdilution (fluconazole 0.12-256 mg/L, up to 1,024 for the azole-resistant cluster and its neighbour group; other ranges not stated); higher = less susceptible. Call: susceptible or wild type [S] / resistant or non-wild type [R] by CLSI breakpoints or cut-offs; intermediate and dose-dependent carry no call. '<=' and '>=' at the end values are inferred; the source marks only some of them. Isolates are numbered anew.

compound: CCC(C)n1ncn(-c2ccc(N3CCN(c4ccc(OCC5COC(Cn6cncn6)(c6ccc(Cl)cc6Cl)O5)cc4)CC3)cc2)c1=O [itraconazole]; test: CLSI broth microdilution.

Test System	MIC
Candida tropicalis isolate 59 (ERG11 copies: 2, Erg11p: no key change)	0.06 mg/L [S]
Candida tropicalis isolate 269 (ERG11 copies: 6, Erg11p: Y132F, S154F (heterozygous))	0.5 mg/L [S]
Candida tropicalis isolate 301 (ERG11 copies: 2, Erg11p: no key change)	0.25 mg/L [S]
Candida tropicalis isolate 137 (ERG11 copies: 2, Erg11p: no key change)	0.25 mg/L [S]
Candida tropicalis isolate 17 (ERG11 copies: 2, Erg11p: no key change)	0.25 mg/L [S]
Candida tropicalis isolate 425 (ERG11 copies: 2, Erg11p: no key change)	0.5 mg/L [S]
Candida tropicalis isolate 185 (ERG11 copies: 2, Erg11p: no key change)	0.25 mg/L [S]
Candida tropicalis isolate 83 (ERG11 copies: 2, Erg11p: no key change)	0.25 mg/L [S]
Candida tropicalis isolate 157 (ERG11 copies: 8, Erg11p: Y132F, S154F (heterozygous))	1 mg/L [R]
Candida tropicalis isolate 288 (ERG11 copies: 2, Erg11p: no key change)	0.25 mg/L [S]
Candida tropicalis isolate 164 (ERG11 copies: 2, Erg11p: no key change)	0.12 mg/L [S]
Candida tropicalis isolate 303 (ERG11 copies: 2, Erg11p: no key change)	0.12 mg/L [S]
Candida tropicalis isolate 62 (ERG11 copies: 2, Erg11p: no key change)	0.25 mg/L [S]
Candida tropicalis isolate 54 (ERG11 copies: 2, Erg11p: no key change)	0.12 mg/L [S]
Candida tropicalis isolate 307 (ERG11 copies: 2, Erg11p: no key change)	0.25 mg/L [S]
Candida tropicalis isolate 299 (ERG11 copies: 2, Erg11p: no key change)	0.12 mg/L [S]
Candida tropicalis isolate 256 (ERG11 copies: 2, Erg11p: no key change)	0.25 mg/L [S]
Candida tropicalis isolate 401 (ERG11 copies: 10, Erg11p: Y132F, S154F (heterozygous))	1 mg/L [R]

Test System	MIC
Candida tropicalis isolate 443 (ERG11 copies: 2, Erg11p: no key change)	0.25 mg/L [S]
Candida tropicalis isolate 80 (ERG11 copies: 2, Erg11p: no key change)	0.25 mg/L [S]
Candida tropicalis isolate 338 (ERG11 copies: 2, Erg11p: no key change)	0.25 mg/L [S]
Candida tropicalis isolate 411 (ERG11 copies: 2, Erg11p: no key change)	0.25 mg/L [S]
Candida tropicalis isolate 246 (ERG11 copies: 2, Erg11p: no key change)	0.25 mg/L [S]
Candida tropicalis isolate 7 (ERG11 copies: 2, Erg11p: no key change)	0.06 mg/L [S]
Candida tropicalis isolate 382 (ERG11 copies: 2, Erg11p: no key change)	0.25 mg/L [S]
Candida tropicalis isolate 19 (ERG11 copies: 8, Erg11p: Y132F, S154F (homozygous))	1 mg/L [R]
Candida tropicalis isolate 211 (ERG11 copies: 2, Erg11p: no key change)	0.25 mg/L [S]
Candida tropicalis isolate 131 (ERG11 copies: 2, Erg11p: no key change)	0.25 mg/L [S]
Candida tropicalis isolate 93 (ERG11 copies: 2, Erg11p: no key change)	0.5 mg/L [S]
Candida tropicalis isolate 276 (ERG11 copies: 7, Erg11p: Y132F, S154F (heterozygous))	0.5 mg/L [S]
Candida tropicalis isolate 39 (ERG11 copies: 8, Erg11p: Y132F, S154F (heterozygous))	0.5 mg/L [S]
Candida tropicalis isolate 94 (ERG11 copies: 2, Erg11p: no key change)	0.12 mg/L [S]
Candida tropicalis isolate 208 (ERG11 copies: 2, Erg11p: no key change)	0.12 mg/L [S]
Candida tropicalis isolate 336 (ERG11 copies: 2, Erg11p: no key change)	0.12 mg/L [S]
Candida tropicalis isolate 230 (ERG11 copies: 2, Erg11p: no key change)	0.06 mg/L [S]
Candida tropicalis isolate 181 (ERG11 copies: 2, Erg11p: no key change)	0.25 mg/L [S]

compound: Nc1[nH]c(=O)ncc1F [flucytosine]; test: CLSI broth microdilution.

Test System	MIC
Candida tropicalis isolate 59 (ERG11 copies: 2, Erg11p: no key change)	≤ 0.06 mg/L [S]
Candida tropicalis isolate 269 (ERG11 copies: 6, Erg11p: Y132F, S154F (heterozygous))	≤ 0.06 mg/L [S]
Candida tropicalis isolate 301 (ERG11 copies: 2, Erg11p: no key change)	≤ 0.06 mg/L [S]
Candida tropicalis isolate 137 (ERG11 copies: 2, Erg11p: no key change)	≤ 0.06 mg/L [S]
Candida tropicalis isolate 17 (ERG11 copies: 2, Erg11p: no key change)	≤ 0.06 mg/L [S]
Candida tropicalis isolate 425 (ERG11 copies: 2, Erg11p: no key change)	≤ 0.06 mg/L [S]
Candida tropicalis isolate 185 (ERG11 copies: 2, Erg11p: no key change)	≤ 0.06 mg/L [S]
Candida tropicalis isolate 83 (ERG11 copies: 2, Erg11p: no key change)	≤ 0.06 mg/L [S]
Candida tropicalis isolate 157 (ERG11 copies: 8, Erg11p: Y132F, S154F (heterozygous))	≤ 0.06 mg/L [S]
Candida tropicalis isolate 288 (ERG11 copies: 2, Erg11p: no key change)	0.12 mg/L [S]
Candida tropicalis isolate 164 (ERG11 copies: 2, Erg11p: no key change)	≤ 0.06 mg/L [S]
Candida tropicalis isolate 303 (ERG11 copies: 2, Erg11p: no key change)	≤ 0.06 mg/L [S]
Candida tropicalis isolate 62 (ERG11 copies: 2, Erg11p: no key change)	≤ 0.06 mg/L [S]
Candida tropicalis isolate 54 (ERG11 copies: 2, Erg11p: no key change)	≤ 0.06 mg/L [S]
Candida tropicalis isolate 307 (ERG11 copies: 2, Erg11p: no key change)	≤ 0.06 mg/L [S]
Candida tropicalis isolate 299 (ERG11 copies: 2, Erg11p: no key change)	≤ 0.06 mg/L [S]
Candida tropicalis isolate 256 (ERG11 copies: 2, Erg11p: no key change)	0.12 mg/L [S]
Candida tropicalis isolate 401 (ERG11 copies: 10, Erg11p: Y132F, S154F (heterozygous))	≤ 0.06 mg/L [S]

Test System	MIC
Candida tropicalis isolate 443 (ERG11 copies: 2, Erg11p: no key change)	≤ 0.06 mg/L [S]
Candida tropicalis isolate 80 (ERG11 copies: 2, Erg11p: no key change)	≤ 0.06 mg/L [S]
Candida tropicalis isolate 338 (ERG11 copies: 2, Erg11p: no key change)	≤ 0.06 mg/L [S]
Candida tropicalis isolate 411 (ERG11 copies: 2, Erg11p: no key change)	≤ 0.06 mg/L [S]
Candida tropicalis isolate 246 (ERG11 copies: 2, Erg11p: no key change)	0.25 mg/L [S]
Candida tropicalis isolate 7 (ERG11 copies: 2, Erg11p: no key change)	0.12 mg/L [S]
Candida tropicalis isolate 382 (ERG11 copies: 2, Erg11p: no key change)	≤ 0.06 mg/L [S]
Candida tropicalis isolate 19 (ERG11 copies: 8, Erg11p: Y132F, S154F (homozygous))	≤ 0.06 mg/L [S]
Candida tropicalis isolate 211 (ERG11 copies: 2, Erg11p: no key change)	0.12 mg/L [S]
Candida tropicalis isolate 131 (ERG11 copies: 2, Erg11p: no key change)	≤ 0.06 mg/L [S]
Candida tropicalis isolate 93 (ERG11 copies: 2, Erg11p: no key change)	≤ 0.06 mg/L [S]
Candida tropicalis isolate 276 (ERG11 copies: 7, Erg11p: Y132F, S154F (heterozygous))	≤ 0.06 mg/L [S]
Candida tropicalis isolate 39 (ERG11 copies: 8, Erg11p: Y132F, S154F (heterozygous))	≤ 0.06 mg/L [S]
Candida tropicalis isolate 94 (ERG11 copies: 2, Erg11p: no key change)	≤ 0.06 mg/L [S]
Candida tropicalis isolate 208 (ERG11 copies: 2, Erg11p: no key change)	≤ 0.06 mg/L [S]
Candida tropicalis isolate 336 (ERG11 copies: 2, Erg11p: no key change)	≤ 0.06 mg/L [S]
Candida tropicalis isolate 230 (ERG11 copies: 2, Erg11p: no key change)	≤ 0.06 mg/L [S]
Candida tropicalis isolate 181 (ERG11 copies: 2, Erg11p: no key change)	0.12 mg/L [S]

compound: OC(Cn1cncn1)(Cn1cncn1)c1ccc(F)cc1F [fluconazole]; test: CLSI broth microdilution.

Test System	MIC
Candida tropicalis isolate 59 (ERG11 copies: 2, Erg11p: no key change)	2 mg/L [S]
Candida tropicalis isolate 269 (ERG11 copies: 6, Erg11p: Y132F, S154F (heterozygous))	256 mg/L [R]
Candida tropicalis isolate 301 (ERG11 copies: 2, Erg11p: no key change)	2 mg/L [S]
Candida tropicalis isolate 137 (ERG11 copies: 2, Erg11p: no key change)	0.5 mg/L [S]
Candida tropicalis isolate 17 (ERG11 copies: 2, Erg11p: no key change)	1 mg/L [S]
Candida tropicalis isolate 425 (ERG11 copies: 2, Erg11p: no key change)	2 mg/L [S]
Candida tropicalis isolate 185 (ERG11 copies: 2, Erg11p: no key change)	2 mg/L [S]
Candida tropicalis isolate 83 (ERG11 copies: 2, Erg11p: no key change)	1 mg/L [S]
Candida tropicalis isolate 157 (ERG11 copies: 8, Erg11p: Y132F, S154F (heterozygous))	512 mg/L [R]
